Test results taken from the supplement of paper PMC4604168 (melanoma cell lines).
Some of the results follow. Repeats are few or missing, and single values can be far off.

Key:
Assay in all cases: cell count relative to DMSO control; melanoma cells; higher = more viable cells
Details in all cases: library dose: low library concentration; 72 h
[1] = system: MZ2-MEL
[2] = system: MeWo
[3] = system: RPMI7951
[4] = system: RVH-421
[5] = system: SkMel28
[6] = system: SkMel2
[7] = system: SkMel30
[8] = system: UACC62
[9] = system: SkMel5
[10] = system: UACC257
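Further: cell number obtained by counting DAPI-stained nuclei in high-throughput microscope images with image analysis software, screen run in 1,536-well plates.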

| SMILES | cell count [1] | cell count [2] | cell count [3] | cell count [4] | cell count [5] | cell count [6] | cell count [7] | cell count [8] | cell count [9] | cell count [10] |
| --- | --- | --- | --- | --- | --- | --- | --- | --- | --- | --- |
| CCCCCCCCc1ccc(CCC(N)(CO)CO)cc1 [fingolimod] + Nc1nc(F)nc2c1ncn2[C@@H]1O[C@H](CO)[C@@H](O)[C@@H]1O [fludarabine] (first compound 2 µM, partner dose 0.2 µM) | 99.1% | 36.9% | 61.5% | 96.1% | 73.3% | 4.25% | 14.8% | 79.5% |  |  |
| NC(=O)c1ccc(N(C(N)=O)c2c(F)cccc2F)nc1-c1ccc(F)cc1F + CS(=O)(=O)CCNCc1ccc(-c2ccc3ncnc(Nc4ccc(OCc5cccc(F)c5)c(Cl)c4)c3c2)o1 [lapatinib] (first compound 0.4 µM, partner dose 0.8 µM) | 100% | 93.7% | 94.5% | 85.1% | 83.7% | 98.1% | 104% | 115% |  |  |
| CCCCCCCCc1ccc(CCC(N)(CO)CO)cc1 [fingolimod] + C[C@@H](Oc1cc(-c2cnn(C3CCNCC3)c2)cnc1N)c1c(Cl)ccc(F)c1Cl [Crizotinib] (first compound 2 µM, partner dose 0.2 µM) | 81.3% | 97.5% | 90.2% | 77.1% | 108% | 99.4% | 107% | 97.9% |  |  |
| Cc1ccc(NC(=O)c2cccc(N(C)C)c2)cc1NC(=O)c1ccc(O)cc1 + O=C(O)C(=O)Nc1sc2c(c1C(=O)O)CCNC2 [TCS401] (first compound 2 µM, partner dose 1.66667 µM) | 79% | 92.9% | 89.6% | 93.6% | 86.5% |  | 85.9% | 93.4% | 91.1% | 81.9% |
| COc1cc2c(Oc3ccc4[nH]c(C)cc4c3F)ncnc2cc1OCCCN1CCCC1 [cediranib] + CCCCCCCCCCCC1=C(O)C(=O)C=C(O)C1=O [Embelin] (first compound 0.4 µM, partner dose 1.2 µM) | 93.6% | 108% | 112% | 110% | 89.7% |  | 115% | 99.7% | 114% | 98.8% |
| CCCCCCCCc1ccc(CCC(N)(CO)CO)cc1 [fingolimod] + C=CCNC1=C2C[C@@H](C)C[C@H](OC)[C@H](O)[C@@H](C)/C=C(\C)[C@H](OC(N)=O)[C@@H](OC)/C=C\C=C(/C)C(=O)NC(=CC1=O)C2=O [Tanespimycin] (first compound 2 µM, partner dose 0.002 µM) | 100% | 84.2% | 78.4% | 78.5% | 93% | 90.7% | 66.5% | 88.3% |  |  |
| NC(=O)c1ccc(N(C(N)=O)c2c(F)cccc2F)nc1-c1ccc(F)cc1F + Cn1nnc2c(C(N)=O)ncn2c1=O [temozolomide] (first compound 0.4 µM, partner dose 2 µM) | 93.8% | 97.2% | 97.1% | 74.7% | 88.9% | 98% | 92.4% | 80.5% |  |  |
| NC(=O)c1ccc(N(C(N)=O)c2c(F)cccc2F)nc1-c1ccc(F)cc1F + Cn1c(=O)n(-c2ccc(C(C)(C)C#N)cc2)c2c3cc(-c4cnc5ccccc5c4)ccc3ncc21 [NVP-BEZ235] (first compound 0.4 µM, partner dose 0.004 µM) | 99.1% | 99.6% | 97.8% | 88.3% | 83.2% | 95.5% | 68.4% | 90% |  |  |
| CN(NC(=O)CC(=O)NN(C)C(=S)c1ccccc1)C(=S)c1ccccc1 + Cc1cc([N+](=O)[O-])ccc1NS(=O)(=O)c1cc(Cl)ccc1Cl [FH535] (first compound 0.006 µM, partner dose 1 µM) | 96.9% | 74.3% | 111% | 78.8% | 77.5% |  | 102% | 86.4% | 82.6% | 94.3% |
| Cc1ccc(NC(=O)c2cccc(N(C)C)c2)cc1NC(=O)c1ccc(O)cc1 + COc1cc2ncnc(Nc3ccc(Oc4ccccc4)cc3)c2cc1OC [SrcI1] (first compound 2 µM, partner dose 2 µM) | 75.3% | 93.3% | 99.7% | 105% | 81.7% |  | 89.3% | 92.6% | 109% | 102% |
| CCc1ccc(CCOc2ccc(CC3SC(=O)NC3=O)cc2)nc1 (stereo not given) [pioglitazone] + CCCCCCCCCCCC1=C(O)C(=O)C=C(O)C1=O [Embelin] (first compound 2 µM, partner dose 1.2 µM) | 99.2% | 94.5% | 117% | 99.7% | 100% |  | 105% | 109% | 97.3% | 118% |
| CC(C)(C)c1cnc(CSc2cnc(NC(=O)C3CCNCC3)s2)o1 + Oc1nc(-c2ccc(C(F)(F)F)cc2)nc2c1CSCC2 [XAV939] (first compound 0.01 µM, partner dose 2 µM) | 95.7% | 93.1% | 76.4% | 111% | 78.8% |  | 151% | 72.7% | 95.3% | 88.2% |
| Cc1ccc(NC(=O)c2cccc(N(C)C)c2)cc1NC(=O)c1ccc(O)cc1 + CCc1ccc(CCOc2ccc(CC3SC(=O)NC3=O)cc2)nc1 [pioglitazone] (first compound 2 µM, partner dose 2 µM) | 72% | 98.8% | 72.5% | 89.6% | 80.5% |  | 95.2% | 90.1% | 102% | 84.5% |
| CC(C)(C)c1cnc(CSc2cnc(NC(=O)C3CCNCC3)s2)o1 + c1cc(-c2cnn3cc(-c4ccc(OCCN5CCCCC5)cc4)cnc23)ccn1 [Dorsomorphin] (first compound 0.01 µM, partner dose 0.4 µM) | 97.4% | 104% | 97.7% | 74.7% | 96.3% |  | 79.5% | 78.6% | 83.6% | 72.8% |
| COc1cc2c(Oc3ccc4[nH]c(C)cc4c3F)ncnc2cc1OCCCN1CCCC1 [cediranib] + COC(=O)c1sccc1S(=O)(=O)Nc1ccc(Nc2ccccc2)cc1OC [GSK0660] (first compound 0.4 µM, partner dose 1 µM) | 98.6% | 107% | 94.2% | 107% | 102% |  | 102% | 89.6% | 95.6% | 85.7% |
| CC(C)(C)c1cnc(CSc2cnc(NC(=O)C3CCNCC3)s2)o1 + COc1ccc2c(c1)CCC1C2CCC2(C)C(NCCCCCCN3C(=O)C=CC3=O)CCC12 [U73122] (first compound 0.01 µM, partner dose 0.4 µM) | 97.6% | 106% | 86.7% | 113% | 103% |  | 114% | 112% | 102% | 86.7% |
| CCc1ccc(CCOc2ccc(CC3SC(=O)NC3=O)cc2)nc1 (stereo not given) [pioglitazone] + COc1cc2ncnc(Nc3ccc(Oc4ccccc4)cc3)c2cc1OC [SrcI1] (first compound 2 µM, partner dose 2 µM) | 90.9% | 95.5% | 104% | 133% | 112% |  | 114% | 96.2% | 124% | 87.4% |
| CN(NC(=O)CC(=O)NN(C)C(=S)c1ccccc1)C(=S)c1ccccc1 + COc1cc(N2CCC(N3CCN(C)CC3)CC2)ccc1Nc1ncc(Cl)c(Nc2ccccc2S(=O)(=O)C(C)C)n1 [NVP-TAE684] (first compound 0.006 µM, partner dose 0.08 µM) | 104% | 65.8% | 102% | 79.1% | 68.9% |  | 77.9% | 90.8% | 80.8% | 64.6% |
| CCc1ccc(CCOc2ccc(CC3SC(=O)NC3=O)cc2)nc1 (stereo not given) [pioglitazone] + O=c1cc(-c2cccc3c2Sc2ccccc2S3)oc(N2CCOCC2)c1 [KU55933] (first compound 2 µM, partner dose 1 µM) | 104% | 96.4% | 93.9% | 95.1% | 77.7% |  | 88.4% | 103% | 92.5% | 90.7% |
| CC(C)(C)c1cnc(CSc2cnc(NC(=O)C3CCNCC3)s2)o1 + COc1ccc(COc2ccc(Cc3cnc(N)nc3N)cc2OC)cc1 [GW2580] (first compound 0.01 µM, partner dose 1 µM) | 99% | 97.8% | 82.6% | 104% | 63.7% |  | 108% | 88.7% | 103% | 96% |
| Cc1ccc(NC(=O)c2cccc(N(C)C)c2)cc1NC(=O)c1ccc(O)cc1 + c1cc(-c2cnn3cc(-c4ccc(OCCN5CCCCC5)cc4)cnc23)ccn1 [Dorsomorphin] (first compound 2 µM, partner dose 0.4 µM) | 74.6% | 94.4% | 82.6% | 90.6% | 91.9% |  | 119% | 88.6% | 83.7% | 89% |
| CN(NC(=O)CC(=O)NN(C)C(=S)c1ccccc1)C(=S)c1ccccc1 + COC(=O)c1sccc1S(=O)(=O)Nc1ccc(Nc2ccccc2)cc1OC [GSK0660] (first compound 0.006 µM, partner dose 1 µM) | 96.4% | 87.5% | 104% | 87.8% | 102% |  | 85.6% | 104% | 84.4% | 77.2% |
| CCc1ccc(CCOc2ccc(CC3SC(=O)NC3=O)cc2)nc1 (stereo not given) [pioglitazone] + COC(=O)c1sccc1S(=O)(=O)Nc1ccc(Nc2ccccc2)cc1OC [GSK0660] (first compound 2 µM, partner dose 1 µM) | 96.8% | 115% | 101% | 86.8% | 92% |  | 92.7% | 98.8% | 103% | 76.6% |
| CC(C)(C)c1cnc(CSc2cnc(NC(=O)C3CCNCC3)s2)o1 + CCN(CC)CCCCNc1ncc2cc(-c3cc(OC)cc(OC)c3)c(NC(=O)NC(C)(C)C)nc2n1 [PD173074] (first compound 0.01 µM, partner dose 0.1 µM) | 91.6% | 97.9% | 95.4% | 99.4% | 88.1% |  | 103% | 80.9% | 93.4% | 96.3% |
